# T1: human CTLA4 expressed on cells (hCTLA4-overexpressing Jurkat JE6.2.11 cells); hCTLA4-overexpressing CHO-K1 … (human, UniProt P16410 36-223)
# T1 construct: The construct expressed on the cells is not described further; also called huCTLA-4+ CHO-K cells; CTLA-4+ CHO-K1 cells
# T1 sequence: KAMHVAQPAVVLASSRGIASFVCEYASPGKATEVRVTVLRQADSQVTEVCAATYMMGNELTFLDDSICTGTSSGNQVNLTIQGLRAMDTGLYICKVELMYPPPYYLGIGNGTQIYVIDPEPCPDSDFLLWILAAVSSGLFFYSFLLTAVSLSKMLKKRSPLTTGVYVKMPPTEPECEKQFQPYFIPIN
# Target: T1, human CTLA4 expressed on cells …
# Assay: competition flow cytometry (cFACS) on hCTLA4-overexpressing CHO-K1 cells against a fixed concentration (10xEC30) of FITC-labelled hCD80-hFc-HIS6; MedianFI (FITC) of bound ligand
binder,measurement,value
"F023700912 (11F01 (E1D,L11V,A14P,Q45R,A74S,K83R,V89L,M96P,Q108L)-35GS-11F01 (L11V,A14P,Q45R,A74S,K83R,V89L,M96P,Q108L)-35GS-ALB 11002-A) (VHH, Trivalent Nanobody construct, bivalent for CTLA4 and monovalent for serum albumin; also called CTLA4 Nab) DVQLVESGGGVVQPGGSLRLSCAASGGTFSFYGMGWFRQAPGKEREFVADIRTSAGRTYYADSVKGRFTISRDNSKNTVYLQMNSLRPEDTALYYCAAEPSGISGWDYWGQGTLVTVSSGGGGSGGGGSGGGGSGGGGSGGGGSGGGGSGGGGSEVQLVESGGGVVQPGGSLRLSCAASGGTFSFYGMGWFRQAPGKEREFVADIRTSAGRTYYADSVKGRFTISRDNSKNTVYLQMNSLRPEDTALYYCAAEPSGISGWDYWGQGTLVTVSSGGGGSGGGGSGGGGSGGGGSGGGGSGGGGSGGGGS[sequence of about 120 residues omitted]",IC50 (read off the curve),~6 nM
